PMC6120942
These are yes or no findings as the source states them, for the method shown. In cells and extracts the contact can be indirect. Some binding calls cover weakened binding; strength is not graded here.

Protein sequences, listed by entry. Tags and fused reporters are not part of them. Lines headed by an entry give the natural chain unless they say otherwise; changes in a name come on top. Chains listed by the source or under a name are the forms on record and can include a tag or linker.
UniProt P51532: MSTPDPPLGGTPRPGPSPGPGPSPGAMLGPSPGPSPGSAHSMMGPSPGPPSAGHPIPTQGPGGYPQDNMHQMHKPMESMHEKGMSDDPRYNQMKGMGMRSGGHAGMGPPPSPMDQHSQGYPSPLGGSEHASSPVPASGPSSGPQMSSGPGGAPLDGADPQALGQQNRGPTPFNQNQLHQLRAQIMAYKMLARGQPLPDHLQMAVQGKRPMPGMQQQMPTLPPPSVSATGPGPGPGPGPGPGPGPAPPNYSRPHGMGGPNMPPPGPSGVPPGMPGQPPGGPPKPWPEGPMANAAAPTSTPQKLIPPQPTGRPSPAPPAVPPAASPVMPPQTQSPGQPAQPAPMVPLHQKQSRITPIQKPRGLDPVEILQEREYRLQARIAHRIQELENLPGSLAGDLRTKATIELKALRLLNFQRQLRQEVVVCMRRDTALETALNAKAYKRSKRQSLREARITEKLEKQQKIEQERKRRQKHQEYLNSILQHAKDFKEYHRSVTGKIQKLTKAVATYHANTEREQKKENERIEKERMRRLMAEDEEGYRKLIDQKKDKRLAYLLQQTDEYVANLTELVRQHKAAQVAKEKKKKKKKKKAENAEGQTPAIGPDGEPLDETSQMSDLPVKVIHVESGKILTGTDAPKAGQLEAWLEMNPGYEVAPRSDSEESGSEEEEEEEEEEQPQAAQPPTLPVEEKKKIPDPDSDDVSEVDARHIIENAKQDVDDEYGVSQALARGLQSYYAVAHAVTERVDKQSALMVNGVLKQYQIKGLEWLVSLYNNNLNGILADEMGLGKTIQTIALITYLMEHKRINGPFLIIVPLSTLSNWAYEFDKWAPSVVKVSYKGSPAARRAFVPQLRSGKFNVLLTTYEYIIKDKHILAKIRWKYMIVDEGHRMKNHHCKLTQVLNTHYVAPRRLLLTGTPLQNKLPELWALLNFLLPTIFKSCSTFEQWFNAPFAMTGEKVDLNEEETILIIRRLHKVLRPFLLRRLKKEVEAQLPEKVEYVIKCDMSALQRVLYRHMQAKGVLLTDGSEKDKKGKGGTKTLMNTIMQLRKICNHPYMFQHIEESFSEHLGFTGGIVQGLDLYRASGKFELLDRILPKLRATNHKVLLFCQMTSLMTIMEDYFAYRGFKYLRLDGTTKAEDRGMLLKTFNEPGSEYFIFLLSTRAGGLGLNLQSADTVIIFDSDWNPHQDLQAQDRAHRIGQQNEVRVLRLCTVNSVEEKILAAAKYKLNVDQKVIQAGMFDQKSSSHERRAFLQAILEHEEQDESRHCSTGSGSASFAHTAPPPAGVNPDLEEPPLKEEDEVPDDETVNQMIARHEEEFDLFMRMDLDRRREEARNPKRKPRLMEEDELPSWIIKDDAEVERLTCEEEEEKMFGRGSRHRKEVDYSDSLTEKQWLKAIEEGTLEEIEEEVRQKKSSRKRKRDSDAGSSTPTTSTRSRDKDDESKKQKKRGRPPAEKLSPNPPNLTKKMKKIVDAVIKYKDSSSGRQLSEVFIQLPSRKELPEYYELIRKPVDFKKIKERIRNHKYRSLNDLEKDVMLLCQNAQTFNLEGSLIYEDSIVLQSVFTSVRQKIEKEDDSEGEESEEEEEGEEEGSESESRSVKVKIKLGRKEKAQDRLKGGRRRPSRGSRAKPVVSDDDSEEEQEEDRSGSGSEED
GST-Brg1 (1–104aa) S31A/S35A (P51532, form named): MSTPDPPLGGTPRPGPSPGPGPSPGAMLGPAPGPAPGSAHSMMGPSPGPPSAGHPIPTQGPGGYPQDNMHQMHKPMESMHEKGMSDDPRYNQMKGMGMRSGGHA
UniProt Q969H0: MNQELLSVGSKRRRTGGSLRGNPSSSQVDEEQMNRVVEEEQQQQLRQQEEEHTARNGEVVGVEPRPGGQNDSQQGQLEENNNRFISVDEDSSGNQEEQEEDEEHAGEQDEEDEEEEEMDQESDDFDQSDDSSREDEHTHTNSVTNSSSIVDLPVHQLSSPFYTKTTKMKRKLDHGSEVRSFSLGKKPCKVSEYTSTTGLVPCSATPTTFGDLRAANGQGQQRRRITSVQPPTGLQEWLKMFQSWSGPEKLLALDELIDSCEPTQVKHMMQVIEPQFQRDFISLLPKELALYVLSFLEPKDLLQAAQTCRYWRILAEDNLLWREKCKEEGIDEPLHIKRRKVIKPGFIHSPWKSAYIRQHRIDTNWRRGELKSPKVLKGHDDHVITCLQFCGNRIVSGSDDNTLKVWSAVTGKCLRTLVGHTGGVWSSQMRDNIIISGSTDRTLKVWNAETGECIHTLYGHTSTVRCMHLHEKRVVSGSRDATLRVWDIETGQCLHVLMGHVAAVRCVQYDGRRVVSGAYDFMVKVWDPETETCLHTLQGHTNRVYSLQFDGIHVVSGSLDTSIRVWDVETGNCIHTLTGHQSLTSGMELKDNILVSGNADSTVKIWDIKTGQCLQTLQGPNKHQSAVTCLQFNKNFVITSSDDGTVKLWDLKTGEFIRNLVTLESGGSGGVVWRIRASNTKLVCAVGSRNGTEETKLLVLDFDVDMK
FBW7γ (Q969H0-4, form named): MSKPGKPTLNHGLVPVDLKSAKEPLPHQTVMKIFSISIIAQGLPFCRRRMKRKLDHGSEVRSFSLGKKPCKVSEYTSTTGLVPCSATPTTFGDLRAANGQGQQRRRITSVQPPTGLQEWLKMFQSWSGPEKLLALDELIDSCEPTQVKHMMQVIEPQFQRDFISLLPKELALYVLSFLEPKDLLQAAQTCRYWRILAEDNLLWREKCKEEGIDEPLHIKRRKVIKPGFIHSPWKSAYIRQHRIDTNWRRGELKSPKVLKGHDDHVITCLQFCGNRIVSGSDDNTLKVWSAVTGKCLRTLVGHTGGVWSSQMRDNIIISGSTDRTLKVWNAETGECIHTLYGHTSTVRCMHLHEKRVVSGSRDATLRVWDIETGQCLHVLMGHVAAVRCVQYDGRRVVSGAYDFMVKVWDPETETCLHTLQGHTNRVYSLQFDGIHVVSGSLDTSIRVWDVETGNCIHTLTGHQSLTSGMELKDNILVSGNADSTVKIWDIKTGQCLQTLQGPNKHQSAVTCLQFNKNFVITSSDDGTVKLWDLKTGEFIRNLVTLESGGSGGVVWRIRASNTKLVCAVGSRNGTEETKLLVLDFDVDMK
FBW7β (Q969H0-2, form named): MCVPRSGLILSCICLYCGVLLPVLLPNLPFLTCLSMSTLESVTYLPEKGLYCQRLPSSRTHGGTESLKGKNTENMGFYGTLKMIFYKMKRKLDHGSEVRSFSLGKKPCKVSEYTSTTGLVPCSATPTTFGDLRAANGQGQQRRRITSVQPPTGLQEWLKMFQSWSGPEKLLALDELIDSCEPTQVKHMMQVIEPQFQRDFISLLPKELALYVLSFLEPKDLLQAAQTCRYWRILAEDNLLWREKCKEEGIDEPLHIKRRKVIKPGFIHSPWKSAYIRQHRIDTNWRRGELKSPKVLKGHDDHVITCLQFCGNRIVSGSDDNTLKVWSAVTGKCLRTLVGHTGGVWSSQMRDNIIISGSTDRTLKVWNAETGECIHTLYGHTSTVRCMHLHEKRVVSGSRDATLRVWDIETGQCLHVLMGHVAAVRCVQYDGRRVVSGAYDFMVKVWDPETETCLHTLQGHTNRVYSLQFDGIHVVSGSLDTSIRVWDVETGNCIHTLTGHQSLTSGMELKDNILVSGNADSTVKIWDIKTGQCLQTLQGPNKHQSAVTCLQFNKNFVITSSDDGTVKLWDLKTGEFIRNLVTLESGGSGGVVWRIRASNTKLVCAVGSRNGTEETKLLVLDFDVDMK

Key:
[1] = biological target: GST-Brg1 (1–104aa) S31A/S35A (UniProt P51532); assay: pull-down; bacterially purified GST-Brg1 (1–104aa) proteins, in vitro kinase reaction with CK1, then pull-down of HA-FBW7; GST as negative control; only the target purified
Flag-Brg1 [2] = biological target: Flag-Brg1 (UniProt P51532); assay: co-IP; 293T cells transfected with tagged constructs; lysis in EBC buffer (50 mM Tris pH 8.0, 120 mM NaCl, 0.5% NP-40), 4 °C, washes in NETN buffer; in Fig. 2d also with the CK1 inhibitor IC261 (20 μM, 8 h; interaction decreased)
Flag-Brg1 [3] = biological target: Flag-Brg1 (UniProt P51532); assay: co-IP; FBW7 isoforms α, β, γ tested with Brg1 (Supplementary Figure 2b); cells and constructs not given
[4] = biological target: endogenous Brg1 (human (endogenous in MKN45)) (UniProt P51532); assay: co-IP; endogenous proteins in MKN45 cells, anti-Brg1 antibody (sc-17796), mouse IgG as control; also after etoposide or cisplatin treatment (binding increased)

Substance | binding (Flag-Brg1 [2]) | binding (Flag-Brg1 [3]) | further results
HA-FBW7 (from UniProt Q969H0 1-707) | binds | – | binding [1]: no binding
FBW7γ (from UniProt Q969H0-4 1-589) | – | no binding | –
FBW7α (from UniProt Q969H0-1 1-707) | – | binds | –
FBW7 R479Q (from UniProt Q969H0 1-707) | no binding | – | –
FBW7β (from UniProt Q969H0-2 1-627) | – | no binding | –
endogenous FBW7 (from UniProt Q969H0 1-707) | – | – | binding [4]: binds
FBW7 R505C (from UniProt Q969H0 1-707) | no binding | – | –
FBW7 R465H (from UniProt Q969H0 1-707) | no binding | – | –
